# Measurements reported in PubChem BioAssay AID504832 (National Center for Advancing Translational Sciences (NCATS), 2011).
# The whole screen tested about 310,000 compounds, of which about 18,000 (5.8%) were called active. The shares of active, inactive and inconclusive entries below differ from those in the screen. The call rests on the fitted dose curve; in most records, active means well fitted inhibition curve with a large enough effect; inconclusive means small, poorly fitted or top-dose-only effect, or another doubt; inactive means no such curve, though single readings can be large or run the other way. No potency is given beside an inconclusive call; the fits are too rough.
# Test: Primary qHTS for delayed death inhibitors of the malarial parasite plastid, 48 hour incubation
# Conditions: P. falciparum luciferase growth in erythrocytes; series mostly up to 28.7 µM
# In short: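 Here the parasites carry a stable luciferase gene and grow inside erythrocytes in Albumax-based RPMI medium with compound for one erythrocytic cycle. Activity is scored as loss of luminescent signal.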
# Potency means the concentration at half of the fitted maximal effect; tags describe the fitted curve by direction and shape.
row,SMILES,Potency
1,Cc1ccc(N=C2NC(=O)/C(=C\c3ccc(C)s3)S2)cc1,"inconclusive [inhibitor, partial curve]"
2,COc1cccc2sc(Nc3nc(-c4ccccn4)cs3)nc12,active: 0.465 µM
3,COC(=O)c1ccc(COc2ccc(/C=C(\C#N)c3nc4ccccc4[nH]3)cc2OC)o1,active: 1.31 µM
4,CC(C)=CCCC(C)NC(=O)NC1CCCCC1 (centres undefined),inactive
5,COCCCn1c(=O)c2sccc2n(Cc2ccccc2C)c1=O,"inconclusive [inhibitor, partial curve, poor fit]"
6,CN(C)/C=N/c1ncc(C(=O)c2ccc(Cl)cc2Cl)s1,"inconclusive [inhibitor, single point]"
7,CCN(CC(=O)NC1CCS(=O)(=O)C1)Cc1nc2c(Br)cc(Br)cc2c(=O)[nH]1 (centres undefined),inactive
8,Cc1nc(N)sc1-c1csc(Nc2ncccn2)n1,inactive
9,COc1cc2[nH]c(=O)n(CCC(=O)N3CCN(c4cc(Cl)ccc4C)CC3)c(=O)c2cc1OC,active: 11.7 µM
10,CCOC(=O)[C@@H]1[C@H]2COc3ccc(Br)cc3[C@@H]2N2C(=O)N(c3cccc(F)c3)C(=O)[C@@]12C,"inconclusive [inhibitor, partial curve, poor fit]"
11,O=C(CSc1nc2ncc(Cl)cc2[nH]1)c1c[nH]c2ccccc12,active: 10.4 µM
12,O=C(/C=C/c1ccccc1)NCCSCc1ccccc1,"inconclusive [inhibitor, single point]"
13,CC(C)NS(=O)(=O)c1ccc(NC(=S)NC(=O)c2ccc(-c3ccccc3)cc2)cc1,active: 6.57 µM
14,Cc1c(NC(=O)c2ccc3c(c2)OCO3)cccc1-c1nc2ccccc2o1,inactive
15,CCn1c(COc2ccc(=O)n(-c3ccccc3)n2)nnc1SCc1cccc(OC)c1,inactive
16,Cc1cnc(NC(=O)c2ccc(-c3ccc([N+](=O)[O-])cc3)o2)s1,"inconclusive [inhibitor, full curve, poor fit]"
17,Cc1cc(CN(C)C(=O)c2ccc(OC3CCN(CCc4ccccc4)CC3)cc2)on1,"inconclusive [inhibitor, single point]"
18,O=C(CSCc1ccc([N+](=O)[O-])cc1)Nc1ccc(S(=O)(=O)N2CCCCCC2)cc1,"inconclusive [inhibitor, single point]"
19,Cn1c(=O)c2c(nc(NCCCN3CCOCC3)n2Cc2cccc(Cl)c2)n(C)c1=O,"inconclusive [inhibitor, partial curve]"
20,N/C(=N\c1nc(CSc2ccc(Cl)cc2)cc(=O)[nH]1)Nc1ccccc1C(F)(F)F,active: 13.1 µM
21,CN(C)C(=O)/C(C#N)=C\c1cc(Br)c(Sc2ccc(Cl)cc2)o1,"inconclusive [inhibitor, partial curve, poor fit]"
22,Cc1nc2ccccc2c(=O)n1NC(=O)c1c(O)c2c(n(CC(C)C)c1=O)CCCC2,"inconclusive [inhibitor, single point]"
23,Cc1ccc(S(=O)(=O)c2nc(S(=O)(=O)c3ccccc3)sc2N2CCN(CCO)CC2)cc1,"inconclusive [inhibitor, partial curve]"

row,SMILES,Potency
1,N#Cc1ccc(C[C@H](C(=O)O)N2C(=O)c3ccc(C(=O)O)cc3C2=O)cc1,inactive
2,CCOC(=O)C1CCCN(C(=O)Cn2ncc3c([nH]c4ccccc43)c2=O)C1 (centres undefined),"inconclusive [inhibitor, partial curve]"
3,Cc1ccc(SCC2(O)CCN(S(=O)(=O)c3ccc(Cl)cc3)CC2)cc1,"inconclusive [inhibitor, partial curve]"
4,CSCCC(NC(=O)COc1ccccc1)C(=O)N1CCN(c2ccccc2F)CC1 (centres undefined),"inconclusive [inhibitor, partial curve]"
5,CCc1ccc(OCC(=O)NC(=S)Nc2cccc(CO)c2)c(Br)c1,inactive
6,O=C(/C=C/c1ccco1)N1CCN(S(=O)(=O)c2ccc(F)c(F)c2F)CC1,"inconclusive [inhibitor, partial curve, poor fit]"
7,CC(=O)c1c(-c2ccccc2)[nH]c2ccccc12,inactive
8,CCOc1ccc(/C(O)=C2/C(=O)C(=O)N(CCOCCO)C2c2ccccc2)cc1 (centres undefined),inactive
9,COc1cc(C(=O)N2CCCN(c3nc4cc(C)ccc4cc3C#N)CC2)cc(OC)c1OC,active: 8.28 µM
10,CCCCCCCNC(=O)C1(CC2CC(c3cccc(Br)c3)=NO2)CCNCC1 (centres undefined),"inconclusive [inhibitor, single point]"
11,O=C(/C=C/c1cccc(F)c1)N1CCN(c2ncccn2)CC1,inactive
12,O=C(NCCc1nnc2ccc(NCc3ccc(F)cc3)nn12)c1ccccc1,"inconclusive [inhibitor, partial curve, poor fit]"
13,Cc1ccc(C(=O)Nc2ncccc2O)o1,"inconclusive [inhibitor, single point]"
14,CCCCCCN(CCCCCC)C(=O)Cc1c(-c2ccc(F)cc2)[nH]c2ccccc12,active: 5.86 µM
15,CCOC(=O)c1c(C)n(C)c2ccc(OC)c(NC(=O)CN3CCN(C4CCCCC4)CC3)c12,"inconclusive [inhibitor, single point]"
16,Cc1ccc(/C=C2/C(=O)N=C(N)N2C)s1,inactive
17,CCOc1ccc(CCNC(=O)CCc2nnc3ccc(N4CCCCC4)nn23)cc1OCC,"inconclusive [inhibitor, partial curve]"
18,Cc1cc(OCCN2CCCC2)ccc1C(C)C,"inconclusive [inhibitor, single point]"
19,O=C1OC(/C(=C\Nc2cc(Cl)ccc2O)[N+](=O)[O-])c2ccccc21 (centres undefined),active: 10.4 µM
20,C=CCN(CC=C)S(=O)(=O)c1ccc(NC(=S)NC(=O)c2ccc(-c3ccccc3)cc2)cc1,active: 1.47 µM
21,COc1ccc([N+](=O)[O-])cc1NC1CCCCC1,"inconclusive [inhibitor, partial curve, poor fit]"
22,COc1cc(S(=O)(=O)N2CCCC3(CCCCC3)C2)ccc1-n1cnnn1,"inconclusive [inhibitor, partial curve, poor fit]"
23,Cc1cc(Sc2nnc(N)s2)c2ccccc2n1,"inconclusive [inhibitor, partial curve, poor fit]"

row,SMILES,Potency
1,COc1ccccc1CCNC(=O)CC1C(=O)NCCN1CCCc1ccccc1 (centres undefined),"inconclusive [inhibitor, partial curve, poor fit]"
2,c1ccc(CN2CCN(c3ncnc4c3[nH]c3ccccc34)CC2)cc1,active: 0.928 µM
3,Fc1ccccc1C1c2[nH]c3ccccc3c2CCN1CCCn1cccn1 (centres undefined),"inconclusive [inhibitor, full curve]"
4,CN(C1CCCCC1)S(=O)(=O)c1ccc(S(=O)(=O)N(CC(=O)Nc2ccccc2)C2CC2)cc1,inactive
5,Cc1cc(C)nc(SCC(=O)OC(C)C(=O)Nc2ccccc2)n1 (centres undefined),"inconclusive [inhibitor, partial curve, poor fit]"
6,Cc1cc(Cl)c(S(=O)(=O)N2CCN(c3ccccc3)CC2)cc1OCC(N)=O,"inconclusive [inhibitor, partial curve]"
7,CN(C)c1ccc(Nc2nc(N)c([N+](=O)[O-])c(N3CCOCC3)n2)cc1,"inconclusive [inhibitor, partial curve, poor fit]"
8,Cc1sc2nc(CN3CCCC3)nc(N3CCN(S(=O)(=O)c4ccccc4)CC3)c2c1C,active: 10.4 µM
9,O=C(NNC(=S)NC(=O)c1ccccc1[N+](=O)[O-])c1ccccc1,"inconclusive [inhibitor, single point]"
10,O=C(/C=C/Nc1ccc(F)cc1Br)c1ccccc1,inactive
11,O=C1c2[nH]nc(-c3ccccc3O)c2C(c2ccccc2F)N1Cc1ccco1 (centres undefined),"inconclusive [inhibitor, partial curve, poor fit]"
12,COc1ccc(-c2cc(C(F)F)n3ncc(C(=O)Nc4cc(C)on4)c3n2)cc1,active: 4.15 µM
13,Brc1ccc(-c2nnc(-c3cccc(Br)c3)o2)cc1,"inconclusive [inhibitor, partial curve, poor fit]"
14,CN(C)c1ccc(N=Nc2ccccc2C(=O)OCC(=O)NCC2CCCCC2)cc1,"inconclusive [inhibitor, partial curve, poor fit]"
15,CCCCOc1ccc(C(=O)NNC(=O)C2C3C=CC(C3)C2C(=O)O)cc1 (centres undefined),inactive
16,CC1Cc2nc(SCC(=O)NCC3CCCO3)n(C)c(=O)c2S1 (centres undefined),"inconclusive [inhibitor, single point]"
17,COc1cc(C2Nc3ccccc3C(=O)N2c2ccc(Cl)cc2)c(Cl)cc1OCC(=O)O (centres undefined),inactive
18,Cc1c(/C=N\NC(=O)C2COc3ccc(C(C)(C)C)cc3O2)c2ccccc2n1C (centres undefined),"inconclusive [inhibitor, single point]"
19,CC(=O)N1c2ccccc2C(C)(C)C2CCC(C)CC21 (centres undefined),"inconclusive [inhibitor, partial curve]"
20,CC(=O)Nc1ccc(NC(=O)CN(C)CC(=O)Nc2ccccc2Br)cc1,inactive
21,COc1ccccc1-n1c(O)c(/C=C2\C=Nc3ccccc32)c(=O)[nH]c1=O,"inconclusive [inhibitor, single point]"
22,CCn1cc(CN2CCC(C(=O)Nc3cccc(-c4cccc(OC)c4)c3)CC2)cn1,inactive
23,COc1ccc(-n2c(CN3CCN(c4ccccn4)CC3)nc3ccc([N+](=O)[O-])cc3c2=O)c(OC)c1,active: 11.7 µM
